# Measurements reported in the supplement of paper PMC8728848.
# The other results are listed elsewhere or left out.
# Tests used:
# Assay in all cases: glycan array binding signal (z-score within array); higher = stronger binding
# Settings in all cases: glycan notation: IUPAC condensed, linker removed
# Gal3S(b1-4)Glc = target: Gal3S(b1-4)Glc
# Outline: (§1)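 Columns mapping to the same glycan were averaged after glycan names were converted to IUPAC-condensed notation. The data come from 3228 arrays in the Consortium for Functional Glycomics database, limited to those with an available protein sequence. Binding is reported as a within-array Z-score averaged across arrays of one protein sequence and across linkers.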
# Gal3S(b1-4)Glc6S = target: Gal3S(b1-4)Glc6S
# Outline: as §1
# Gal3S(b1-4)GlcNAc = target: Gal3S(b1-4)GlcNAc
# Outline: as §1
# [1] = target: Gal3S(b1-4)[Fuc(a1-3)]Glc6S
# Outline: as §1
# [2] = target: Gal3S(b1-4)[Fuc(a1-3)]GlcNAc
# Outline: as §1
# [3] = target: Gal3S(b1-4)[Fuc(a1-3)]GlcNAc6S
# Outline: as §1
# Gal3S4S(b1-4)GlcNAc = target: Gal3S4S(b1-4)GlcNAc
# Outline: as §1
# Gal3S6S(b1-4)GlcNAc = target: Gal3S6S(b1-4)GlcNAc
# Outline: as §1
# Gal3S6S(b1-4)GlcNAc6S = target: Gal3S6S(b1-4)GlcNAc6S
# Outline: as §1
# Gal4S(b1-4)GlcNAc = target: Gal4S(b1-4)GlcNAc
# Outline: as §1
# Gal4S6S(b1-4)GlcNAc = target: Gal4S6S(b1-4)GlcNAc
# Outline: as §1
# Gal6P(b1-4)GlcNAc = target: Gal6P(b1-4)GlcNAc
# Outline: as §1
# Gal6S(b1-3)GlcNAc = target: Gal6S(b1-3)GlcNAc
# Outline: as §1
# Gal6S(b1-3)GlcNAc6S = target: Gal6S(b1-3)GlcNAc6S
# Outline: as §1
# Gal6S(b1-4)Glc = target: Gal6S(b1-4)Glc
# Outline: as §1
# Gal6S(b1-4)Glc6S = target: Gal6S(b1-4)Glc6S
# Outline: as §1
# Gal6S(b1-4)GlcNAc = target: Gal6S(b1-4)GlcNAc
# Outline: as §1
# Gal6S(b1-4)GlcNAc6S = target: Gal6S(b1-4)GlcNAc6S
# Outline: as §1
# GalNAc(a1-3)Gal = target: GalNAc(a1-3)Gal
# Outline: as §1
# GalNAc(a1-3)GalNAc = target: GalNAc(a1-3)GalNAc
# Outline: as §1
# [4] = target: GalNAc(a1-3)GalNAc(b1-3)Gal(a1-4)Gal(b1-4)Glc
# Outline: as §1
# [5] = target: GalNAc(a1-3)GalNAc(b1-3)Gal(a1-4)Gal(b1-4)GlcNAc
# Outline: as §1
# GalNAc(b1-3)Gal = target: GalNAc(b1-3)Gal
# Outline: as §1
# [6] = target: GalNAc(b1-3)Gal(a1-4)Gal(b1-4)GlcNAc
# Outline: as §1
# [7] = target: GalNAc(b1-3)Gal(a1-4)Gal(b1-4)GlcNAc(b1-3)Gal(b1-4)Glc
# Outline: as §1
# [8] = target: GalNAc(b1-3)Gal(a1-6)Gal(b1-4)Glc
# Outline: as §1
# GalNAc(b1-3)GalNAc = target: GalNAc(b1-3)GalNAc
# Outline: as §1
# GalNAc(b1-3)GlcNAc = target: GalNAc(b1-3)GlcNAc
# Outline: as §1
# GalNAc(b1-4)Gal(b1-4)Glc = target: GalNAc(b1-4)Gal(b1-4)Glc
# Outline: as §1
# GalNAc(b1-4)GlcNAc = target: GalNAc(b1-4)GlcNAc
# Outline: as §1
# [9] = target: GalNAc(b1-4)GlcNAc(b1-2)Man
# Outline: as §1
# [10] = target: GalNAc(b1-4)GlcNAc(b1-2)Man(a1-3)[GalNAc(b1-4)GlcNAc(b1-2)Man(a1-6)]Man(b1-4)GlcNAc(b1-4)GlcNAc
# Outline: as §1
# [11] = target: GalNAc(b1-4)GlcNAc(b1-3)GalNAc(b1-4)GlcNAc
# Outline: as §1
# GalNAc(b1-4)GlcNAc6S = target: GalNAc(b1-4)GlcNAc6S
# Outline: as §1
# GalNAc(b1-6)GalNAc = target: GalNAc(b1-6)GalNAc
# Outline: as §1
# GalNAc3S(b1-4)GlcNAc = target: GalNAc3S(b1-4)GlcNAc
# Outline: as §1
# GalNAc3S(b1-4)GlcNAc3S = target: GalNAc3S(b1-4)GlcNAc3S
# Outline: as §1
binder,measurement,setting,value
Clec18C (Homo sapiens) (protein) MLHPETSPGRGHLLAVLLALLGTAWAEVWPPQLQEQAPMAGALNRKESFLLLSLHNRLRSWVQPPAADMRRLDWSDSLAQLAQARAALCGTPTPSLASGLWRTLQVGWNMQLLPAGLVSFVEVVSLWFAEGQRYSHAAGECARNATCTHYTQLVWATSSQLGCGRHLCSAGQAAIEAFVCAYSPRGNWEVNGKTIVPYKKGAWCSLCTASVSGCFKAWDHAGGLCEVPRNPCRMSCQNHGRLNISTCHCHCPPGYTGRYCQVRCSLQCVHGRLREEECSCVCDIGYGGAQCATKVHFPFHTCDLRIDGDCFMVSSEADTYYRARMKCQRKGGVLAQIKSQKVQDILAFYLGRLETTNEVIDSDFETRNFWIGLTYKTAKDSFRWATGEHQAFTSFAFGQPDNHGFGNCVELQASAAFNWNNQRCKTRNRYICQFAQEHISRWGPGS,glycan array binding signal (z-score),Gal3S(b1-4)Glc,-0.388
same,glycan array binding signal (z-score),Gal3S(b1-4)Glc6S,-0.387
same,glycan array binding signal (z-score),Gal3S(b1-4)GlcNAc,-0.019
same,glycan array binding signal (z-score),[1],-0.095
same,glycan array binding signal (z-score),[2],-0.38
same,glycan array binding signal (z-score),[3],-0.116
same,glycan array binding signal (z-score),Gal3S4S(b1-4)GlcNAc,-0.589
same,glycan array binding signal (z-score),Gal3S6S(b1-4)GlcNAc,0.096
same,glycan array binding signal (z-score),Gal3S6S(b1-4)GlcNAc6S,-0.4
same,glycan array binding signal (z-score),Gal4S(b1-4)GlcNAc,-0.336
same,glycan array binding signal (z-score),Gal4S6S(b1-4)GlcNAc,-0.359
same,glycan array binding signal (z-score),Gal6P(b1-4)GlcNAc,-0.488
same,glycan array binding signal (z-score),Gal6S(b1-3)GlcNAc,0.042
same,glycan array binding signal (z-score),Gal6S(b1-3)GlcNAc6S,-0.553
same,glycan array binding signal (z-score),Gal6S(b1-4)Glc,0.907
same,glycan array binding signal (z-score),Gal6S(b1-4)Glc6S,-0.432
same,glycan array binding signal (z-score),Gal6S(b1-4)GlcNAc,0.35
same,glycan array binding signal (z-score),Gal6S(b1-4)GlcNAc6S,-0.237
same,glycan array binding signal (z-score),GalNAc(a1-3)Gal,0.145
same,glycan array binding signal (z-score),GalNAc(a1-3)GalNAc,0.214
same,glycan array binding signal (z-score),[4],-0.549
same,glycan array binding signal (z-score),[5],-0.49
same,glycan array binding signal (z-score),GalNAc(b1-3)Gal,-0.044
same,glycan array binding signal (z-score),[6],-0.15
same,glycan array binding signal (z-score),[7],2.65
same,glycan array binding signal (z-score),[8],-0.087
same,glycan array binding signal (z-score),GalNAc(b1-3)GalNAc,-0.515
same,glycan array binding signal (z-score),GalNAc(b1-3)GlcNAc,3.98
same,glycan array binding signal (z-score),GalNAc(b1-4)Gal(b1-4)Glc,-0.592
same,glycan array binding signal (z-score),GalNAc(b1-4)GlcNAc,1.42
same,glycan array binding signal (z-score),[9],-0.321
same,glycan array binding signal (z-score),[10],0.041
same,glycan array binding signal (z-score),[11],0.286
same,glycan array binding signal (z-score),GalNAc(b1-4)GlcNAc6S,-0.4
same,glycan array binding signal (z-score),GalNAc(b1-6)GalNAc,-0.463
same,glycan array binding signal (z-score),GalNAc3S(b1-4)GlcNAc,-0.581
same,glycan array binding signal (z-score),GalNAc3S(b1-4)GlcNAc3S,-0.501
